Out of some 360,000 compounds screened, about 7,500 (2.1%) were called active. Inconclusive results (about 20%) are left out. Calls follow the shape of the dose curve; as a rule, active = well fitted inhibition curve with a large enough effect; inconclusive = small, poorly fitted or top-dose-only effect, or effect the other way; inactive = flat fitted curve, though single readings scatter. The list shows a part of the results, in another mix than the full data. The source holds several records for some structures; these can differ, active in one and inactive in another.
Assay: Nrf2 qHTS screen for inhibitors; also: nearly all actives have a fitted effect of over 60% in size
Conditions: A549 ARE-Fluc reporter, luciferase luminescence, 18-24 h; series mostly up to 46 µM; activity change, negative = inhibition: at the top concentration
Method in brief: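 In this cell-based qHTS, ARE-driven firefly luciferase in A549 cells reports Nrf2 activity; the luminescent signal after BugLite lysis is the measured value, with a prior CellTiter-Fluor read for cell health.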
% is scaled to controls: 0 for no effect and ±100 for the full control effect; potency is read from the fitted curve at half-maximal effect.

Potency, active:
CC(=O)Nc1ccc(S(=O)(=O)NCCSCc2ccc(Cl)cc2Cl)cc1 9.2 µM
COc1ccc(/C=N/Nc2nc(C)cc(-c3ccccc3)n2)cc1OC 23.1 µM
CC(C)(C)Nc1nc(-c2ccccn2)nc2ccccc12 20.6 µM
Cc1ccccc1SCC(=O)N1CCN(c2ccc(C(F)(F)F)cn2)CC1 3.66 µM
CCCCn1c(NC(=O)c2ccccc2Cl)c(C#N)c2nc3ccccc3nc21 13 µM
CN(Cc1ccccc1)C(=O)c1ccc(NC(=O)Cc2ccc(NC(=O)C3CCCN(C(=O)CCc4ccccc4)C3)cc2)cc1 (configuration not stated) 2.59 µM
Cc1cc(C)n2nc(SCC(=O)c3cc(C)n(CC4CCCO4)c3C)nc2n1 (configuration not stated) 10.3 µM
Cc1ccc(Cl)cc1N1CCN(C(=O)CN(C2CCCCC2)S(C)(=O)=O)CC1 18.4 µM
CC(=O)c1c(C)[nH]c(C(=O)OCc2ccc(F)cc2Cl)c1C 13 µM
CC1Cc2cc(S(=O)(=O)CCC(=O)Nc3ccc(OC(F)(F)F)cc3)ccc2N1C(=O)C1CC1 (configuration not stated) 23.1 µM
COCCCNC(=O)CSc1nc(-c2cccc(F)c2)[nH]c1-c1ccccc1 14.6 µM

Activity change, negative = inhibition, inactive:
O=C(CCCN1C(=O)/C(=C/c2cccs2)SC1=S)NNC(=O)c1cccnc1 -12.5%
CN(C)c1nc(C#N)nc(N2CCOCC2)n1 -1.2%
COc1cc(C(CC(=O)N2CCCC2)c2c(OC)cc(OC)c3c(-c4ccccc4)cc(=O)oc23)cc(OC)c1OC (configuration not stated) -7.07%
O=C(NNC(=O)c1nc2ccccc2[nH]1)OCc1ccccc1 12%
COc1ccc(Cl)cc1NC(=O)CCc1nc(-c2ccccc2F)no1 -18.1%
O=C1C2C3C=CC(C3)C2C(=O)N1CCN1CCN(Cc2ccc([N+](=O)[O-])cc2)CC1 (configuration not stated) -18.5%
CCOC(=O)CNc1nc(Oc2ccc(=O)n(C)n2)nc(N(CC)CC)n1 -27.4%
O=C(COC(=O)Cc1ccc(S(=O)(=O)N2CCCCC2)s1)Nc1ccc2c(c1)OCO2 8.49%
CCOc1ccccc1CNC(=O)C1CCN(c2nnc(C)c3c(C)n(-c4ccc(C)cc4)nc23)CC1 20.9%
O=C1c2ccccc2C(=O)N1Cc1ccccn1 6.15%
Cc1ncc(CO)c2c1Oc1nc(-c3ccccc3)nc(SCC(=O)N3CCCCC3)c1C2 3.75%
CCN(CC)CCNC(=O)c1cc2c(-c3cccc(OC)c3)nn(C)c2s1 26.2%
Cc1nn(C(C)C(=O)NCc2ccco2)c(=O)c2nn(-c3ccccc3)c(C)c12 (configuration not stated) 10.9%
O=C(NCc1ccccc1)C1=C[C@@H](c2ccccc2)C[C@@H](OCc2ccc(CO)cc2)O1 -18.6%
O=C(Nc1nnc(S(=O)(=O)N2CCOCC2)s1)c1cccc(F)c1 22.4%
Cc1ccc(C)c(N2CCN(C(=O)CCCn3ncn4c(cc5occc54)c3=O)CC2)c1 -4.99%

Reference: PubChem BioAssay AID504444 (National Center for Advancing Translational Sciences (NCATS), 2011)
